# Measured values from paper PMC12820563.
# Some of the results follow. The list includes weakly bound sequences.
# Target: T1, MBP-FoxP3dN (UniProt Q99JB6)
# T1 sequence: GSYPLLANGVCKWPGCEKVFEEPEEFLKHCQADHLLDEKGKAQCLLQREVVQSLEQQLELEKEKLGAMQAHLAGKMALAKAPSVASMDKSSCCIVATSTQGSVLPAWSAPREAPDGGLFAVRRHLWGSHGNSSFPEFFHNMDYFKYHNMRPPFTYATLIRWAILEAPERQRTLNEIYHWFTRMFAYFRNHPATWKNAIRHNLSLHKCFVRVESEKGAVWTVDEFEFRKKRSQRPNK
# Experiment: PD-seq (MBP pull-down with sequencing)
# Details: 20 mM Tris-HCl pH 7.5, 100 mM NaCl, 1.5 mM MgCl2, 0.4 uM protein, 0.1 uM dsDNA library, 30 min, room temperature, amylose pull-down; high values mean tight binding; double strand, one strand shown
row,Sequence,binding signal (RPM ratio (pull-down/input))
1,GATGATTGTTCTCCCAGCTGATGAATTTTCACCCTCGAGTAAACAAATTTTCCTAATCTTTCTGTTCAAGCGCCATCTAC,0.233
2,GATGATTGTTCTCCCAGCTGATGAATTGTAAATGTCGAGTAAACAAATTTTCCTAATCTTTCTGTTCAAGCGCCATCTAC,0.55
3,GATGATTGTTCTCCCAGCTGATGAATTACACCAGTCGAGTAAACAAATTTTCCTAATCTTTCTGTTCAAGCGCCATCTAC,0.338
4,GATGATTGTTCTCCCAGCTGATGAATTCCGTTACTCGAGTAAACAAATTTTCCTAATCTTTCTGTTCAAGCGCCATCTAC,1.19
5,GATGATTGTTCTCCCAGCTGATGAATTTTATCGGTCGAGTAAACAAATTTTCCTAATCTTTCTGTTCAAGCGCCATCTAC,0.351
6,GATGATTGTTCTCCCAGCTGATGAATTACATGAATCGAGTAAACAAATTTTCCTAATCTTTCTGTTCAAGCGCCATCTAC,0.385
7,GATGATTGTTCTCCCAGCTGATGAATTAATACGATCGAGTAAACAAATTTTCCTAATCTTTCTGTTCAAGCGCCATCTAC,0.484
8,GATGATTGTTCTCCCAGCTGATGAATTCCCCAATTCGAGTAAACAAATTTTCCTAATCTTTCTGTTCAAGCGCCATCTAC,0.199
9,GATGATTGTTCTCCCAGCTGATGAATTTCGTATGTCGAGTAAACAAATTTTCCTAATCTTTCTGTTCAAGCGCCATCTAC,2.73
10,GATGATTGTTCTCCCAGCTGATGAATTGAGACCGTCGAGTAAACAAATTTTCCTAATCTTTCTGTTCAAGCGCCATCTAC,0.383
11,GATGATTGTTCTCCCAGCTGATGAATTACCGAATTCGAGTAAACAAATTTTCCTAATCTTTCTGTTCAAGCGCCATCTAC,0.754
12,GATGATTGTTCTCCCAGCTGATGAATTCTAAGCCTCGAGTAAACAAATTTTCCTAATCTTTCTGTTCAAGCGCCATCTAC,0.322
13,GATGATTGTTCTCCCAGCTGATGAATTGGCGATATCGAGTAAACAAATTTTCCTAATCTTTCTGTTCAAGCGCCATCTAC,0.594
14,GATGATTGTTCTCCCAGCTGATGAATTTTGAGCGTCGAGTAAACAAATTTTCCTAATCTTTCTGTTCAAGCGCCATCTAC,0.583
15,GATGATTGTTCTCCCAGCTGATGAATTTTTTGTGTCGAGTAAACAAATTTTCCTAATCTTTCTGTTCAAGCGCCATCTAC,0.531
16,GATGATTGTTCTCCCAGCTGATGAATTAGGCACGTCGAGTAAACAAATTTTCCTAATCTTTCTGTTCAAGCGCCATCTAC,1.03
17,GATGATTGTTCTCCCAGCTGATGAATTTTTAGGATCGAGTAAACAAATTTTCCTAATCTTTCTGTTCAAGCGCCATCTAC,0.222
18,GATGATTGTTCTCCCAGCTGATGAATTCCGCTCGTCGAGTAAACAAATTTTCCTAATCTTTCTGTTCAAGCGCCATCTAC,0.774
19,GATGATTGTTCTCCCAGCTGATGAATTTCCCACGTCGAGTAAACAAATTTTCCTAATCTTTCTGTTCAAGCGCCATCTAC,0.273
20,GATGATTGTTCTCCCAGCTGATGAATTGATCAAGTCGAGTAAACAAATTTTCCTAATCTTTCTGTTCAAGCGCCATCTAC,0.245

row,Sequence,binding signal (RPM ratio (pull-down/input))
1,GATGATTGTTCTCCCAGCTGATGAATTATGTGGCTCGAGTAAACAAATTTTCCTAATCTTTCTGTTCAAGCGCCATCTAC,1.57
2,GATGATTGTTCTCCCAGCTGATGAATTAATGCGTTCGAGTAAACAAATTTTCCTAATCTTTCTGTTCAAGCGCCATCTAC,2.76
3,GATGATTGTTCTCCCAGCTGATGAATTGCAAACATCGAGTAAACAAATTTTCCTAATCTTTCTGTTCAAGCGCCATCTAC,2.67
4,GATGATTGTTCTCCCAGCTGATGAATTCGAGCGGTCGAGTAAACAAATTTTCCTAATCTTTCTGTTCAAGCGCCATCTAC,0.282
5,GATGATTGTTCTCCCAGCTGATGAATTCTCGCTCTCGAGTAAACAAATTTTCCTAATCTTTCTGTTCAAGCGCCATCTAC,0.367
6,GATGATTGTTCTCCCAGCTGATGAATTCGAATCATCGAGTAAACAAATTTTCCTAATCTTTCTGTTCAAGCGCCATCTAC,0.582
7,GATGATTGTTCTCCCAGCTGATGAATTGACCGTCTCGAGTAAACAAATTTTCCTAATCTTTCTGTTCAAGCGCCATCTAC,0.364
8,GATGATTGTTCTCCCAGCTGATGAATTGGCTCGATCGAGTAAACAAATTTTCCTAATCTTTCTGTTCAAGCGCCATCTAC,0.261
9,GATGATTGTTCTCCCAGCTGATGAATTGGCATTGTCGAGTAAACAAATTTTCCTAATCTTTCTGTTCAAGCGCCATCTAC,2.47
10,GATGATTGTTCTCCCAGCTGATGAATTGAACAGATCGAGTAAACAAATTTTCCTAATCTTTCTGTTCAAGCGCCATCTAC,0.174
11,GATGATTGTTCTCCCAGCTGATGAATTATATTGCTCGAGTAAACAAATTTTCCTAATCTTTCTGTTCAAGCGCCATCTAC,1.53
12,GATGATTGTTCTCCCAGCTGATGAATTTTGTTTCTCGAGTAAACAAATTTTCCTAATCTTTCTGTTCAAGCGCCATCTAC,5.54
13,GATGATTGTTCTCCCAGCTGATGAATTCCTGCCTTCGAGTAAACAAATTTTCCTAATCTTTCTGTTCAAGCGCCATCTAC,1.75
14,GATGATTGTTCTCCCAGCTGATGAATTCGGTCGCTCGAGTAAACAAATTTTCCTAATCTTTCTGTTCAAGCGCCATCTAC,0.361
15,GATGATTGTTCTCCCAGCTGATGAATTAATTGAATCGAGTAAACAAATTTTCCTAATCTTTCTGTTCAAGCGCCATCTAC,0.292
16,GATGATTGTTCTCCCAGCTGATGAATTCTCCCGTTCGAGTAAACAAATTTTCCTAATCTTTCTGTTCAAGCGCCATCTAC,0.247
17,GATGATTGTTCTCCCAGCTGATGAATTCACCGTCTCGAGTAAACAAATTTTCCTAATCTTTCTGTTCAAGCGCCATCTAC,0.359
18,GATGATTGTTCTCCCAGCTGATGAATTGTTAATCTCGAGTAAACAAATTTTCCTAATCTTTCTGTTCAAGCGCCATCTAC,0.654
19,GATGATTGTTCTCCCAGCTGATGAATTTCACCTCTCGAGTAAACAAATTTTCCTAATCTTTCTGTTCAAGCGCCATCTAC,0.48
20,GATGATTGTTCTCCCAGCTGATGAATTTTAGAAGTCGAGTAAACAAATTTTCCTAATCTTTCTGTTCAAGCGCCATCTAC,0.183
